# Reference: article PMC6919601, “Identification of Plasmodium dipeptidyl aminopeptidase allosteric inhibitors by high throughput screening” (PLoS ONE, 2019)
# “And” between values parts separate entries of the source, which are not always exact repeats. Identical values can stand only once. In all, about 110,000 compounds went through this assay and about 230 (0.21%) showed an effect of 50% or more. Some of the results follow.
# Biological target: DPAP1 (Plasmodium falciparum, UniProt Q8IIJ9)
# Experiment: primary screen, percent inhibition; read by cleavage of a fluorogenic dipeptide substrate; higher = more effect of the substance
# Design: species or system P. falciparum D10 trophozoite lysates; single well
# 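Note: 30 min substrate incubation versus DMSO and 10 µM JCP410 controls.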
# Chain of DPAP1 (Q8IIJ9 whole entry, looked up): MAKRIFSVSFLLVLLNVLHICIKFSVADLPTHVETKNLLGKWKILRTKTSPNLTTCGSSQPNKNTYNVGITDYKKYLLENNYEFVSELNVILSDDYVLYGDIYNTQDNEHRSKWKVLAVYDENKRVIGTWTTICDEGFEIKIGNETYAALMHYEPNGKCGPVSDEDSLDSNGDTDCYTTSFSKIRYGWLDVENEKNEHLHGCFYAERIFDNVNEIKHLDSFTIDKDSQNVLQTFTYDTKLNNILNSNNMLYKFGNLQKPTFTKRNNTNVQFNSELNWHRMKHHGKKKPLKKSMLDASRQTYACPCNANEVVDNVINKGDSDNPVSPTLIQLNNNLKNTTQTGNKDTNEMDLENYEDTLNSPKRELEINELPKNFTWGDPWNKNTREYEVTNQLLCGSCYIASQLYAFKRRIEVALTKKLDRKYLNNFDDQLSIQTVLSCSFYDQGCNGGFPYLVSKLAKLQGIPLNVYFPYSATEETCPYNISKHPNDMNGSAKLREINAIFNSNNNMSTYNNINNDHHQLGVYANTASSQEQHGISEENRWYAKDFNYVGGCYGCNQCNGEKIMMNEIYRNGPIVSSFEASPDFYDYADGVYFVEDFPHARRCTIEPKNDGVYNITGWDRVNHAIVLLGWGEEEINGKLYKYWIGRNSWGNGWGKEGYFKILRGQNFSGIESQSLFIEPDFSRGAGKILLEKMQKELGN
row,Structure (SMILES),% Inhibition @ 10 uM
1,CCOc1cc2c(cc1OCC)C(c1ccc(O)c(OC)c1)NCC2 (stereo not drawn),0.83%
2,CCOc1ccc(-n2c(C)cc(/C=C3\C(=O)N(CC4CCCO4)C(C)=C3C(=O)OC)c2C)cc1 (stereo not drawn),3.47%
3,Cc1c(C(=O)Nc2ccncc2)sc2nc(-c3ccccc3)cn12,1.35%
4,C=CCOc1ccccc1CNC(C)(C)CO,0.907%
5,COc1cc(/C=C2\C(=O)ON=C2c2ccccc2)cc(Br)c1O,3.54%
6,O=C(O)CC/N=C(\NS(=O)(=O)c1ccccc1)c1ccccc1,-7.8%
7,O=C(NCc1cccs1)c1nn2c(C(F)(F)F)cc(-c3ccccc3)nc2c1Cl,-2.2%
8,CCOC(=O)N1CCN(C(=O)CCc2nc3ccccc3[nH]2)CC1,0.166%
9,CC1CCN(c2nc(Cl)nc(NC(C)(C)CO)n2)CC1,-1.85%
10,Cc1ccc(NC(=O)c2ccc(C)c(C)c2)c(C(=O)O)c1,3.04%
11,CCOc1ccc(CCNC(=O)c2cc(S(=O)(=O)N3CCOCC3)cn2C)cc1OCC,-5.99%
12,COc1ccc(-c2cc(-c3cc(Cl)ccc3O)[nH]n2)cc1,-0.171%
13,COc1ccc(N(CC(=O)Nc2ccccc2Cl)S(C)(=O)=O)cc1,-15.1%
14,COc1nc(C)nc(NC(=O)NC(=O)c2c(Cl)nc(C)c(Cl)c2C)n1,1.62%
15,COc1ccc(-c2nc(-c3ccc(Cl)cc3)no2)cc1,-0.267%
16,CCC(C(=O)NCCOC)n1cc(C=O)c2ccccc21 (stereo not drawn),-8.34%
17,COc1ccc(-c2nc3ccccc3o2)cc1,-0.414%
18,O=C(CCc1ccccc1)Nc1cc(Cl)ccc1Cl,-3.03%
19,COc1ccc(C2C3=C(O)CC(C)(C)CC3=Nc3nc(SC)nn32)c(OC)c1OC (stereo not drawn),0.0842%
20,COc1cc(NC(=O)c2cnn3c2NC(c2ccco2)CC3C(F)(F)F)c(OC)cc1Cl (stereo not drawn),4.67%
21,NC(=O)c1c(NC(=O)c2ccc(Br)cc2)sc2c1CCCCC2,22.6%
22,COc1ccc(CC(=O)Nc2c3c(nc4ccccc24)N(Cc2ccccc2)CC3)cc1OC,-2.87%
23,CC(C)c1ccc(-c2c(NCc3ccccc3Cl)c(=O)c2=O)cc1,-7.52%
24,COC(=O)C1=CN(C(C)C)C=C(C(=O)OC)C1c1cc(OC)c(OC)cc1OC,1.86%
25,Cc1ccc(-n2nnc3c(=O)n(CC(=O)NCc4ccc5c(c4)OCO5)cnc32)cc1,2.85%

row,Structure (SMILES),% Inhibition @ 10 uM
1,Cc1ccc(-c2nc(-c3cccnc3)no2)cc1,6.86%
2,O=C(c1ccc2nc(N3CCCCC3)sc2c1)N1CCc2ccccc2C1,-0.637%
3,O=C(CSCCc1ccccn1)Nc1cccnc1Cl,-3.21%
4,Cc1cc2c(c(=O)o1)C(c1ccc(F)c(F)c1)C(C#N)=C(N)O2 (stereo not drawn),0.847%
5,COc1ccccc1N1CCN(C2CCN(Cc3ccccc3)CC2)CC1,-3.27%
6,O=C(NC1CCCC1)C1CCN(S(=O)(=O)c2ccccc2)CC1,-1.92%
7,CN(C(=O)c1cnc2ccc(S(=O)(=O)N3CCC4(CC3)OCCO4)cc2c1O)C1CCCCC1,-7.57%
8,COc1ccc(Oc2nc3ccccn3c(=O)c2/C=C(\C#N)C(=O)N2CCOCC2)cc1,4.06%
9,Cc1ccc(Cn2nc(C)c(NC(=O)C(F)(F)F)c2C)cc1,6.1%
10,O=C(Nc1nc2ccccc2s1)c1cc2c(s1)-c1ccc(Cl)cc1S(=O)(=O)C2,-4.24%
11,Cc1cccc(-n2nc3c(c2NC(=O)c2ccc(C(C)(C)C)cc2)CS(=O)(=O)C3)c1C,10.3%
12,CCOc1ccc2nc(SCc3c(C(=O)OC)nnn3-c3nonc3N)sc2c1,19.4%
13,COc1ccccc1N(CC(=O)N1CCc2ccccc2C1)S(C)(=O)=O,2.44%
14,Cc1c(CNCCC2=CCCCC2)c(C(=O)O)c(C)n1Cc1ccccc1,4.53%
15,O=C(CCn1c(=O)c2cccn2c2cccnc21)N1CCN(c2ccccn2)CC1,7.87%
16,Cc1cc(C)n(-c2ccc(C(=O)NC(C)C)cc2)n1,2.08%
17,CN(CCNC(=O)CCCN1C(=O)C(c2ccccc2)Oc2cccnc21)C1CCCCC1 (stereo not drawn),-2.68%
18,CC(C)(C)c1ccc(C2C(C#N)=C(N)Oc3[nH]nc(-c4cccnc4)c32)cc1 (stereo not drawn),0.722%
19,CCCCN1CN=C(Nc2nc(C)c3cc(OCC)ccc3n2)NC1,-3.13%
20,CC(C)(C)c1cc(C(F)(F)F)nc(N)n1,-1.59%
21,CC1CC(C)CN(C(=O)C(Cc2ccccc2)n2cccc2)C1 (stereo not drawn),-2.42%
22,O=C(CCc1nnc2ccc(N3CCOCC3)nn12)N1CC=C(c2ccccc2)CC1,0.842%
23,O=C(CN1C(=O)S/C(=C/c2c[nH]c3ccccc23)C1=O)N1CCOCC1,19.6%
24,CC(=O)Nc1ccc(NC(=O)c2ccc(C)c(C)c2)cc1,-6.66%
25,Cn1c(=O)c2c(nc(N3CCCCCC3)n2Cc2ccccc2F)n(C)c1=O,3.69%

row,Structure (SMILES),% Inhibition @ 10 uM
1,CCCn1c(C(O)c2cccc3ccccc23)nc2ccccc21 (stereo not drawn),-4.98%
2,Cc1csc(NC(=O)CSc2nc(N)c(C#N)cc2C#N)n1,0.0719%
3,Cc1oc(-c2ccc(C(=O)N3CCN(C)CC3)cc2)nc1CS(=O)(=O)c1ccccc1,-8.88%
4,Cc1c(Cc2ccccc2)sc(NC(=O)C2CC2)c1C(N)=O,-0.173%
5,CCC(C)NC(=O)c1cc(-c2ccco2)nc2ccccc12 (stereo not drawn),-13.3%
6,COc1ccc(-c2cc(OC(=O)c3ccc(C)cc3)c3c(C)oc(C)c3c(=O)c2)cc1OC,-6.64%
7,Cn1c2ccccc2c2cnn(CC(=O)NCCc3ccc(Cl)cc3)c(=O)c21,-3.67%
8,O=C1c2cccc3c(O)c(-c4ccccc4)c(O)c(c23)C(=O)N1c1ccccc1,-1.06%
9,CCC1CCCCN1S(=O)(=O)c1ccccc1[N+](=O)[O-] (stereo not drawn),4.17%
10,Cc1ccc(S(=O)(=O)N(CC(=O)N2CCOCC2)c2cccc(C)c2)cc1,1.57%
11,O=C(NCCCN1CCCC1=O)c1ccc(CNS(=O)(=O)c2ccc(Br)cc2)cc1,-5.22%
12,Brc1ccc(-c2nnnn2-c2ccccc2)cc1,-2.78%
13,CC1(C)CC(=O)C(/C=N/CCN2CCNC2=O)=C(O)C1,1.03% and -1.81%
14,CCOc1ccccc1NC(=O)COc1cc(Cl)ccc1Cl,4.59%
15,O=S(=O)(Nc1cc(Cl)ccc1Cl)c1ccc(F)cc1,-3.04%
16,Cc1ccc(C(=O)Nc2nc(COc3ccccc3)cs2)cc1,2.43%
17,COc1ccccc1NC(=O)CCCC(=O)Nc1ccccc1OC,-6.58%
18,COCCNC(=O)CCCc1nnc2n(C)c(=O)c3sccc3n12,-2.15%
19,CCOc1ccccc1C(=O)N(C(C)CC)C(C)CC (stereo not drawn),-4.63%
20,CC(/N=c1\cc(O)oc2ccccc12)c1ccccc1 (stereo not drawn),-5.36%
21,COc1ccc(C(NC(C)=O)c2ccc3cccnc3c2O)cc1 (stereo not drawn),-6.93%
22,Cc1ccc2nc3c(cc(C(=O)NC4CCCCC4)c(=N)n3CCc3ccccc3)c(=O)n2c1,-3.27%
23,Cn1c(CSc2ncccn2)nnc1SCC(N)=O,6.77%
24,CCSc1nnc(-c2ccccc2)c2ccccc12,0.392%
25,COc1ccc(-c2nc(CS(=O)CC(=O)NCc3ccccn3)c(C)o2)cc1 (stereo not drawn),2.37%

row,Structure (SMILES),% Inhibition @ 10 uM
1,Cc1cc(NCc2ccccc2)c2ccc(Cl)cc2n1,2.36%
2,CCOc1ccccc1C1C2=C(CC(C)(C)CC2=O)N(CCC(=O)O)C2=C1C(=O)CC(C)(C)C2,-2.14%
3,CCCCCC(=O)Nc1ccc(S(=O)(=O)NC(C)=O)cc1,-11.6%
4,CCOc1ccccc1C1C2=C(O)CCCC2=NC(C)=C1C(=O)OC1CCCC1 (stereo not drawn),0.736%
5,COc1cc(CNc2ccccc2SC)cc(OC)c1,1.17%
6,CCS(=O)(=O)c1nc(S(=O)(=O)c2ccc(Cl)cc2)c(NCCN2CCOCC2)s1,1.15%
7,Cc1cc(NS(=O)(=O)c2ccc(NC(=O)c3ccc(Cl)cc3Cl)cc2)no1,-9.31%
8,CCc1[nH]nc2c1C(c1cccc(OCc3ccccc3)c1)C(C#N)=C(N)O2 (stereo not drawn),-4.03%
9,CCN(CC)CC#CC(C)(OC(C)=O)C(C)C (stereo not drawn),6.18%
10,CC(Oc1ccc(Cl)cc1Cl)C(=O)Nc1ccc(CC#N)cc1 (stereo not drawn),2.49%
11,COc1ccc(C2CC3=Nc4ccccc4NC(c4ccncc4)C3=C(O)C2)cc1 (stereo not drawn),-4.76%
12,CCCN(CCC)C1=N/C(=C\c2ccco2)C(=O)N1c1ccccc1,-12.7%
13,O=C(NCCC1=CCCCC1)c1nnc(O)c2ccccc12,5.88%
14,Cc1ccc(-c2csc(/C(C#N)=C\C=C\c3ccc([N+](=O)[O-])cc3)n2)c(C)c1,1.91%
15,Cc1noc2ncnc(NC(C)CCc3ccccc3)c12 (stereo not drawn),-8.54%
16,CC(=O)c1c(O)cc(C)o/c1=N\c1ccc(F)cc1,-0.736%
17,CCOCCCNC(=O)c1oc2ccc3nc(N(C)C)sc3c2c1C,5.56%
18,COc1ccc(OC)c(CCNC(=O)CCn2ccc3cc(S(=O)(=O)N4CCCC4)ccc32)c1,8.89%
19,CCCCCCSc1nc(O)cc(=O)n1-c1ccccc1,9.67%
20,O=C(O)CSc1nc2ccccc2[nH]1,-3.65%
21,CC(C)Oc1ccc(C(=O)CCNC(C(=O)O)C(C)C)cc1 (stereo not drawn),59.7%
22,CCSCCO/C(O)=C1\C(C)=NC2=C(C(=O)CC(c3cccc(OC)c3)C2)C1c1ccc(C)o1 (stereo not drawn),3.87%
23,COC(=O)c1ccc(C2Nc3ccc4ccccc4c3C3=C2C(=O)CC(C)(C)C3)cc1 (stereo not drawn),-0.414%
24,COc1ccc(S(=O)(=O)NCc2cccnc2)c(C)c1C,1.72%
